Assay results: the supplement of paper PMC3334620
Whole data set: some 33,000 sequences, median “E-score (-0.5 to 0.5)” near -0.012, cut for the highest 2% near 0.29. This is one part of the list.

molecular target: T1, Ybr033w (UniProt P38073); test: PBM E-score (8-mer binding enrichment) (E-score (-0.5 to 0.5)); higher = stronger / more preferred TF binding; most listed sequences are background and not binding sites; conditions: protein concentration: 200 nM; construct: GST-full length
T1 sequence: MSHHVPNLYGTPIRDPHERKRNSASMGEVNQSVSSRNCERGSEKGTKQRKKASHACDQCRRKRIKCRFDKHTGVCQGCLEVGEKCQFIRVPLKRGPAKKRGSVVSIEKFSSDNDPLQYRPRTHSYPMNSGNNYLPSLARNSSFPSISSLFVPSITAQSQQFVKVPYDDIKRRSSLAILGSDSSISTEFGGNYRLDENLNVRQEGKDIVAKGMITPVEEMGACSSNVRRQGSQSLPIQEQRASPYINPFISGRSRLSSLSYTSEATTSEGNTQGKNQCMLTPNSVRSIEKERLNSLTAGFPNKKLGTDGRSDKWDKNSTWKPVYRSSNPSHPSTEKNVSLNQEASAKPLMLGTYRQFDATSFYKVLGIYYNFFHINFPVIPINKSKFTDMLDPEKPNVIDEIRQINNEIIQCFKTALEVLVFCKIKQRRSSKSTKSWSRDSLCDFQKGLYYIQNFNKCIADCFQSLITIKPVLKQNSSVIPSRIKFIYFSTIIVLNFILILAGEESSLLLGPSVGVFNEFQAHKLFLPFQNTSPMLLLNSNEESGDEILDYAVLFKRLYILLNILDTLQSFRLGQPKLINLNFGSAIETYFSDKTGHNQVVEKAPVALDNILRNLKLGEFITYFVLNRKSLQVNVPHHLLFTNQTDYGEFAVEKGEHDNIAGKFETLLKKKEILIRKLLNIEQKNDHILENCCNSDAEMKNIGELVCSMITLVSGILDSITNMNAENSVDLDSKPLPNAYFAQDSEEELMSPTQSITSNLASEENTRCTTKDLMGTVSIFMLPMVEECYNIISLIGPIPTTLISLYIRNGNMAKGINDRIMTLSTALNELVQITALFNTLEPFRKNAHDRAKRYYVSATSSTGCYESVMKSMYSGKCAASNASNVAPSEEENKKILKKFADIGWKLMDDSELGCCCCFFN
Experimental: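 Universal 'all 10-mer' protein binding microarrays (Agilent AMADID 015681) probed with GST-tagged S. cerevisiae TFs (full-length or DBD) made by in vitro transcription/translation (PURExpress), about 100-200 nM. Bound TF was detected with fluorescent anti-GST. Each ungapped 8-mer (which stands for itself and its reverse complement) is scored by the PBM enrichment score (E-score), a modified Wilcoxon-Mann-Whitney statistic from -0.5 to +0.5, computed with the Universal PBM Analysis Suite. Scale: above 0.35 generally sequence-specific binding.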

| Sequence | PBM E-score |
| --- | --- |
| AAGACACC | -0.146 |
| ATTAGTCC | 0.203 |
| AAACTAAC | 0.274 |
| ACTCGTTA | 0.0584 |
| AGCACCGG | -0.174 |
| GGTGTAGA | -0.188 |
| GCCTGGCA | -0.354 |
| ATCTCCAC | 0.0486 |
| AATAAAAT | 0.304 |
| AAGCGTTC | -0.151 |
| GATTCCCA | -0.0759 |
| AGACATCT | -0.00752 |
| AGCATCCT | -0.0531 |
| ACAACCAA | 0.071 |
| GAGCATAC | 0.0668 |
| AAAGCTTA | 0.216 |
| AGTCCCAC | -0.134 |
| CGAATTCC | 0.11 |
| ATGCAATA | 0.164 |
| TCACTTCA | 0.049 |
| GCAACAAC | 0.104 |
| CGAAATAA | 0.264 |

| Sequence | PBM E-score |
| --- | --- |
| ACCGAAGT | -0.0837 |
| CGGACACA | -0.152 |
| GGGAGGAC | -0.278 |
| CCCTCAGA | -0.187 |
| ATGCCTCC | -0.146 |
| GAACCCCC | -0.372 |
| AATAGTCC | -0.0436 |
| AGACTATA | 0.0641 |
| AATTTCCT | 0.273 |
| CAGGATCC | -0.071 |
| TTAGAGAA | -0.134 |
| CGCTTGCC | -0.0791 |
| CACGGACG | -0.00234 |
| CAATTAAA | 0.224 |
| CGACGTCA | -0.161 |
| AGTAAACC | -0.0233 |
| ATCGTCAT | 0.0883 |
| CACTAACA | 0.14 |
| CGTTTCAC | -0.0986 |
| ACACGAAC | -0.079 |
| CCTTCAAC | 0.00095 |
| ACGACTGG | -0.11 |

| Sequence | PBM E-score |
| --- | --- |
| CCTGCCTC | -0.197 |
| CCCGTACG | -0.311 |
| CGGGGCAA | -0.0914 |
| CTAGAATC | -0.0344 |
| GCTTGGCC | -0.0835 |
| CTTTAAAG | 0.00135 |
| CATGTCAG | -0.199 |
| CTGTCACC | -0.15 |
| GAAGCCTA | -0.00724 |
| AGTTGACG | 0.127 |
| AGTGAGCC | -0.178 |
| GATCAAAC | 0.115 |
| CATCACTC | -0.0377 |
| TCAGCCCA | -0.126 |
| CAGAGTAC | -0.0472 |
| CACGCATA | -0.0608 |
| AGAATCTG | -0.00563 |
| GCTAAAAA | 0.0426 |
| ACGTCTTA | -0.0921 |
| CCGCGGCC | -0.226 |
| GACGGGCC | -0.415 |
| TAACTAAA | 0.135 |

| Sequence | PBM E-score |
| --- | --- |
| CGCTGCCG | -0.328 |
| AGCGTTTA | -0.0683 |
| TGCCTAAA | 0.0317 |
| CAACGCTG | -0.0341 |
| ACTAGGTG | -0.13 |
| AGCGCCCA | -0.213 |
| GTCCGCTA | -0.055 |
| GAAGTGAA | 0.155 |
| GCGCCGCA | -0.161 |
| ATTAGGTA | 0.207 |
| ATCTCCCA | -0.14 |
| GCATAGGA | -0.0355 |
| ATCTTACC | 0.0215 |
| GCGCATAA | -0.0124 |
| AATATCCT | 0.259 |
| ATCCGGTC | 0.12 |
| GTCCATAA | -0.176 |
| CCGGTCAG | -0.177 |
| GGGGCAAA | -0.286 |
| GCCGAAGA | -0.0625 |
